The other results are listed elsewhere or left out.

The test system of the test is PfAP2-HC AP2 domain (GST-tagged). The test is described as follows: gcPBM binding intensity (ln(normalized median fluorescence intensity)); higher = stronger DNA binding. In a few lines: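 The binding buffer was 1× PBS containing 1% milk, 0.2 mg/ml BSA, 0.5% salmon testes DNA and 0.03% Triton X-100. In it, GST-tagged P. falciparum DNA-binding domains expressed in E. coli were applied for 1 h to an Agilent 4 × 180k array of primer-extended double-stranded 36-bp intergenic genomic probes plus negative controls. Binding intensity, read with Alexa488 anti-GST antibody and a 488 nm scan, is the highest Masliner-normalised natural-log median intensity across replicate spots of either probe orientation.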
On to TATTTATAAATATGTGTGCACAATTTATTTTATAAT, for which the “gcPBM binding intensity (ln)” value was determined as 9.74. Turning to “TTATTTCTAACATGATGTACTTTTATATTATATAAT [XGTACX_site3574]”, the “gcPBM binding intensity (ln)” value was found to be 9.57. In the case of “TTTTTTTTATATATCTGTACATATATATATATATAT [XGTACX_site8280]”, the “gcPBM binding intensity (ln)” value was 9.84. The figure for “TATTTTCAAAATGTTGTACACACAAAAAAAAAAAAA [CACACA_site8437]” is 9.73; for “ATATACTTTTCAATGTGTACTTATGAATATATATGT [XGTACX_site7972]” it is 9.69. As to “ATATATATATATATATGTACATACATATTGTTTGGT [XGTACX_site2284]”, the “gcPBM binding intensity (ln)” value came out at 9.78. Consider “CAAAATATTTTTTCCTGTACATAATTCCTATTTCAC [XGTACX_site3590]”, for which the “gcPBM binding intensity (ln)” value was determined as 9.59. As for “ATATAATAATATGGTTGTACATAAATAACACATGAA [XGTACX_site6592]”, the “gcPBM binding intensity (ln)” value was found to be 9.77. Consider “TAATAATAGAAACACACACACATAGACATATATATA [CACACA_site1307]”, for which the “gcPBM binding intensity (ln)” value is 10.5.

For “ATGATTATACAAAATATACACACGTGTAGACAAATA [CACACA_site1175]”, the “gcPBM binding intensity (ln)” value stood at 9.94.

In the case of “CACTTAAAAAGCTAACGTACAAATACACATATATAA [XGTACX_site1851]”, the “gcPBM binding intensity (ln)” value came to 9.66. Regarding “AATATATATATAAATAATATACCTATATATTTTTTG [XGTACX_negctrl_site407]”, the “gcPBM binding intensity (ln)” value was 9.61. The figure for “AAAAACAATTTAATCACACATATATGTCACAAAGAT [CACACA_site5043]” is 9.81; for “ATATTAAATATTATCACACACATAATTATTTCCATA [CACACA_site2334]” it is 9.89. The figure for “TAATAAATTCATAATTGTACATTGAAGTATTATGCA [XGTACX_site5121]” is 9.45. Regarding “TTTTTTTATTTTGTATGTACATATCATTTGATATTC [XGTACX_site8449]”, the “gcPBM binding intensity (ln)” value worked out at 9.86. Consider “TATACGTATACCTATACACACATATATTTATTTATA [CACACA_site6716]”, for which the “gcPBM binding intensity (ln)” value amounted to 9.77. The figure for “TATATATATAACAGAATGCACTTTATATGTTCATAT [GTGCAC_site9880]” is 9.64; for “GATATCCTTATATTTGCACACACACCCAATAAAATG [CACACA_site1028]” it is 10.4; for “AAAAAATACAGACACACACACACACGCATATAAATA [CACACA_site7644]” it is 10.8.

On to “TTGGTAAATATATTTTGAATATAAGAAATATAGACG [CACACA_negctrl_site1634]”, for which the “gcPBM binding intensity (ln)” value stood at 9.58. As for “ATTATTACTATATGTGTACACATCAACTGGTTTGAT [CACACA_site5563]”, the “gcPBM binding intensity (ln)” value worked out at 9.97. For “AGTAGCGGCGGTATCATGCACACGTATAGATTGTAA [CACACA_site1587]”, the “gcPBM binding intensity (ln)” value is 9.77. Take “ATTAAATCCGCACGCACACACACATATTAAGAAAAA [CACACA_site6062]”: the “gcPBM binding intensity (ln)” value is 10.3.

With “GTTGAAAAAAATATATGTACGTATATATGTATGTAT [XGTACX_site8201]”, the “gcPBM binding intensity (ln)” value amounted to 9.82. For the sequence “TTGTTTATATATATATGTACATATTTTAAGGCATCC [XGTACX_site6976]”, the “gcPBM binding intensity (ln)” value came to 9.44. Take “CCACGTATACGATGCACACGTATGCTTTATATATAG [CACACA_site4108]”: the “gcPBM binding intensity (ln)” value stood at 9.74. Take TTTATTTTGTTTATGGTGCATTTTATGTAAATATAT: the “gcPBM binding intensity (ln)” value is 9.77. For “AAAATATATTATTATTGTACATATATTTTCATTTAC [XGTACX_site4593]”, the “gcPBM binding intensity (ln)” value is 9.86.

With “AATTTTTATACGGATACACACAAAAAAAAATAAAAA [CACACA_site897]”, the “gcPBM binding intensity (ln)” value was found to be 9.78. On to “TAAATATATTTATAAGCACACACTAATAAACCCACA [CACACA_site390]”, for which the “gcPBM binding intensity (ln)” value turned out to be 10.7.

Regarding “AAGGCATATATAATTTGTACATATTAAGAATTAGAT [XGTACX_site8660]”, the “gcPBM binding intensity (ln)” value was 9.66. For the sequence “AAGAAAATAAAAAGGTAAATATGTATAAATAAATAA [TGCATGCA_negctrl_site88]”, the “gcPBM binding intensity (ln)” value is 9.73. For the sequence “TTTTTTGAAAATAAATGTACGAATTTTATATTTAAA [XGTACX_site2768]”, the “gcPBM binding intensity (ln)” value worked out at 9.21. For “TGAAATAAAATTATTTGTACATATCGGAAAAAAAAA [XGTACX_site7131]”, the “gcPBM binding intensity (ln)” value was 9.45. Turning to “AAATTACCCATCCATACACACATATTTTTTTTAATT [CACACA_site2189]”, the “gcPBM binding intensity (ln)” value was found to be 10.2. Take “GATACAGATGGACACACACACATACATAAATACATA [CACACA_site5833]”: the “gcPBM binding intensity (ln)” value stood at 11.3. For “AATAAATAAATAAATAAATAAATATATATATATATA [GTGCAC_negctrl_site330]”, the “gcPBM binding intensity (ln)” value came to 9.58. Under “TAATGACAATAAAAATAAATAAATAAAAAAAAAAAA [TGCATGCA_negctrl_site321]” stands 9.55. As for “ATATATTATCTGTACACACACATATAAGGGATTATA [CACACA_site4180]”, the “gcPBM binding intensity (ln)” value is 10.3. Take “TTATGCATATATTATGCATGTAGTTTTAAATCACAT [TGCATGCA_site104]”: the “gcPBM binding intensity (ln)” value was 9.51. For the sequence “TATATACACATTTTTATACACACTTGTTTTATAAAA [CACACA_site8139]”, the “gcPBM binding intensity (ln)” value came to 9.83. For the sequence “AAAAAATACATACATACACACATATTTATTTATATA [CACACA_site6554]”, the “gcPBM binding intensity (ln)” value is 9.99. The figure for “GCACAAATATATATATATATATATATATATATATAT [GTGCAC_negctrl_site661]” is 9.52; for “ATAATTATATACCATGCACACAAATATTCATACAGG [CACACA_site9343]” it is 9.9.
